{"source": "PubChem BioAssay AID1454", "about": "(National Center for Advancing Translational Sciences (NCATS), 2008)", "note": "Values joined by “and” are separate entries in the source; they are usually repeats but may differ in a detail not shown here. Identical values can stand only once. The campaign covered roughly 130,000 compounds. About 550 (0.42%) were called active. Inconclusive means that the source gave no clear call. Such entries were picked first, then a sample of the others. The call rests on the fitted dose curve; in most records, active means well fitted inhibition curve with a large enough effect; inconclusive means small, poorly fitted or top-dose-only effect, or effect the other way; inactive means flat fitted curve, though single readings scatter. Where the call is inconclusive, the potency comes from a doubtful curve fit. Potency means the concentration at half of the fitted maximal effect; tags describe the fitted curve by direction and shape."}
{"assay": "qHTS Assay for Inhibitors of the ERK Signaling Pathway using a Homogeneous Screening Assay; Stimulation with EGF; further: nearly all actives have a fitted effect of over 55% in size;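 on activity change, negative = inhibition: plate controls were stimulated vehicle wells for no effect and unstimulated vehicle basal for full effect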", "details": "HEK293-V1b, EGF-stimulated phospho-ERK AlphaScreen; activity change, negative = inhibition: at the top concentration", "in_short": "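Homogeneous cell-based phospho-ERK assay: HEK293/V1b cells in 1% FBS, compound 30 min then EGF 5 min, AlphaScreen luminescence. Activity normalized between DMSO and 25 nM EGF controls; AC50 from Hill modelling.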"}
{"smiles": "CCOC(=O)c1sc2nc3c(SCCC(=O)O)cc(C(=O)c4cc(OC)ccc4O)cn3c(=O)c2c1C", "Potency": "inconclusive: 7.08 µM [inhibitor, single point]"}
{"smiles": "CCSC1=NSC2=NC(=O)/C(=C\\c3coc4ccccc4c3=O)C(=N)N12", "Potency": "active: 31.6 µM"}
{"smiles": "COc1ccc(C(=O)NC(=S)Nc2cccc(S(=O)(=O)N3CCOCC3)c2)cc1", "Potency": "inconclusive: 22.4 µM [inhibitor, single point]"}
{"smiles": "COc1ccc(CCNc2ncnc3cc(OC)c(OC)cc23)cc1OC", "Potency": "active: 28.2 µM"}
{"smiles": "CCCCCCOc1ccc(N2C(=O)CC(N3CCN(CCN=CC4C(=O)CC(C)(C)CC4=O)CC3)C2=O)cc1", "note": "(stereo unspecified)", "Potency": "inconclusive: 14.1 µM [inhibitor, partial curve]"}
{"smiles": "CCCCCn1cnc2c(sc3nc4c(cc32)CSC(C)(C)C4)c1=O", "Potency": "inconclusive: 31.6 µM [inhibitor, single point]"}
{"smiles": "CN1CCN(c2ccc(NC(=O)c3ccc(-c4ccc(Br)cc4)o3)cc2)CC1", "Potency": "inconclusive: 31.6 µM [inhibitor, single point]"}
{"smiles": "Cc1cc(N)nc2nc(C(F)(F)F)nn12", "activity change, negative = inhibition": "inactive: 6.23%"}
{"smiles": "Clc1ccc(Nc2c3c(nc4ncnn24)CCC3)cc1", "Potency": "inconclusive: 39.8 µM [inhibitor, single point]"}
{"smiles": "N#Cc1cccc(NC(=O)N2CC3(CCN(C(=O)c4cnccn4)CC3)C2)c1", "Potency": "inconclusive: 39.8 µM [inhibitor, single point]"}
{"smiles": "O=C1c2ccccc2C(=O)N1CC1c2ccccc2CCN1C(=O)CN1CCOCC1", "note": "(stereo unspecified)", "Potency": "inconclusive: 6.31 µM [inhibitor, single point]"}
{"smiles": "CC(/C=C1\\SC(=S)N(C(C(=O)O)c2ccccc2)C1=O)=C\\c1ccccc1", "note": "(stereo unspecified)", "Potency": "inconclusive: 35.5 µM [inhibitor, single point]"}
{"smiles": "c1ccc(NCc2nc3ccccc3n2CCOc2ccccc2)cc1", "Potency": "inconclusive: 17.8 µM [inhibitor, single point]"}
{"smiles": "COc1ccc(N2CCN(C(=O)c3ccc4c(=O)n(CCc5ccc(OC)c(OC)c5)c(=O)[nH]c4c3)CC2)cc1", "Potency": "inconclusive: 28.2 µM [inhibitor, partial curve]"}
{"smiles": "Cc1ccc2cc3c(nc2c1)N(c1ccccc1)CC3", "Potency": "inconclusive: 22.4 µM [activator, partial curve]"}
{"smiles": "O=C(C1CCCN1C(=O)c1cccs1)N1CCN(Cc2ccc3c(c2)OCO3)CC1", "note": "(stereo unspecified)", "activity change, negative = inhibition": "inactive: 3.95% [at 57.5 µM]"}
{"smiles": "Cc1nn(-c2ccccc2)c(C)c1/C=C1\\C(=O)N(C)C(=S)N1C", "Potency": "inconclusive: 28.2 µM [inhibitor, single point]"}
{"smiles": "CCN(CC)c1ccc(/C=N/Nc2nc3ccccc3[nH]2)cc1", "activity change, negative = inhibition": "inactive: 6.63%"}
{"smiles": "CSc1ccc2c(c1)N(CCC1CCCCN1C)c1ccccc1S2", "note": "(stereo unspecified)", "Potency": "inactive and inconclusive: 28.2 µM [inhibitor, single point]"}
{"smiles": "COc1ccc(CCNC(=O)CCCNC(=O)Cn2cnc3sc(C)c(C)c3c2=O)cc1OC", "Potency": "inconclusive: 0.631 µM [inhibitor, full curve, poor fit]"}
{"smiles": "CCCN1[C@H](C(=O)OC)C[C@@]2(O)[C@@H](O)[C@@H](O)[C@@H](O)C[C@@H]12", "Potency": "inconclusive: 3.16 µM [activator, partial curve]"}
{"smiles": "Cc1c(N=NC2=C(O)CC(C)(C)CC2=O)cc2c(c1[N+](=O)[O-])C(C)(C)CC2(C)C", "Potency": "inconclusive: 17.8 µM [inhibitor, partial curve]"}
{"smiles": "CCOc1ccc(-n2c(-c3ccccc3)c[n+]3c2CCC3)cc1", "activity change, negative = inhibition": "inactive: -3.05%"}
{"smiles": "CC(C)(Sc1ccc(CCN(CCCCC2CCCCC2)C(=O)NC2CCCCC2)cc1)C(=O)O", "Potency": "inconclusive: 39.8 µM [inhibitor, single point]"}
{"smiles": "COC(=O)C1=C(C)N(Cc2ccc(OC)cc2)C(=O)/C1=C\\c1ccco1", "Potency": "inconclusive: 25.1 µM [inhibitor, single point]"}
{"smiles": "COc1ccc(NC(=O)COC(=O)CC2CC3CCC2C3)c([N+](=O)[O-])c1", "note": "(stereo unspecified)", "Potency": "inconclusive: 25.1 µM [inhibitor, single point]"}
{"smiles": "S=C1Cc2ccccc2N1", "Potency": "inconclusive: 39.8 µM [inhibitor, single point]"}
{"smiles": "CC(=O)C1CCC2C3CC(C)C4=CC(=O)CC[C@@]4(C)C3C(O)C[C@@]12C", "note": "(stereo partly specified)", "activity change, negative = inhibition": "inactive: 0.394%"}
{"smiles": "C=CCOc1ccc(-c2n[nH]c(=S)o2)cc1", "Potency": "inconclusive: 31.6 µM [inhibitor, partial curve]"}
{"smiles": "Cn1c(CNC(=O)OC(C)(C)C)nnc1SCc1c(Cl)cccc1Cl", "Potency": "inconclusive: 3.55 µM [activator, partial curve, poor fit]"}
{"smiles": "CCOC(=O)N1CCN(S(=O)(=O)c2ccc(C(=O)NNc3nc4cc(C)cc(C)c4s3)cc2)CC1", "Potency": "inconclusive: 39.8 µM [inhibitor, single point]"}
{"smiles": "O=C(c1ccc(S(=O)(=O)N2CCOCC2)cc1)N1CCOCC1", "Potency": "inconclusive: 22.4 µM [activator, partial curve, poor fit]"}
{"smiles": "Cn1nc(-c2ccccn2)nc2c(=O)n(C)c(=O)nc1-2", "Potency": "inconclusive: 7.08 µM [inhibitor, single point]"}
{"smiles": "O=C(Cc1cccs1)NC1C(=O)N2C(C(=O)[O-])=C(C[n+]3ccccc3)CSC12", "note": "(stereo unspecified)", "activity change, negative = inhibition": "inactive: 20.6%"}
{"smiles": "O=C(COC(=O)CCSc1ccc(Cl)cc1)NCc1ccc(Cl)cc1", "Potency": "inconclusive: 1.58 µM [activator, partial curve]"}
{"smiles": "COc1cccc(Nc2ccc(Nc3cccc(OC)c3)nn2)c1", "Potency": "inconclusive: 39.8 µM [inhibitor, single point]"}
{"smiles": "CCCC(=O)Nc1ccc(-c2csc(N/N=C\\c3ccncc3)n2)cc1", "Potency": "inconclusive: 28.2 µM [inhibitor, partial curve]"}
{"smiles": "Cc1ccc2nc(NC(=O)C3CCN(S(=O)(=O)c4cccc5nsnc45)CC3)sc2c1", "Potency": "inconclusive: 31.6 µM [inhibitor, partial curve]"}
{"smiles": "Cn1c(NC(=O)c2ccc(F)cc2)c(-c2ccccn2)c(=O)c2ccccc21", "activity change, negative = inhibition": "inactive: -8.68% [at 57.5 µM]"}
{"smiles": "O=C(CNCc1ccncc1)Nc1cc(S(=O)(=O)N2CCCCC2)ccc1Cl", "activity change, negative = inhibition": "inactive: 1.66%"}
{"smiles": "Cc1cccc2sc(NC(=O)C3CCN(S(=O)(=O)c4cc([N+](=O)[O-])ccc4Cl)CC3)nc12", "Potency": "inconclusive: 12.6 µM [inhibitor, partial curve, poor fit]"}
